# Results from the supplement of paper PMC8728848.
# The list shows a part of the results.
# B1: CLEC-6 (Homo sapiens), Q8WXI8 (protein)
# chain: MGLEKPQSKLEGGMHPQLIPSVIAVVFILLLSVCFIASCLVTHHNFSRCKRGTGVHKLEHHAKLKCIKEKSELKSAEGSTWNCCPIDWRAFQSNCYFPLTDNKTWAESERNCSGMGAHLMTISTEAEQNFIIQFLDRRLSYFLGLRDENAKGQWRWVDQTPFNPRRVFWHKNEPDNSQGENCVVLVYNQDKWAWNDVPCNFEASRICKIPGTTLN
# Key:
# Experiment in all cases: glycan array binding signal (z-score within array); higher = stronger binding
# Conditions in all cases: glycan notation: IUPAC condensed, linker removed
# Fuc(a1-2)Gal = biological target: Fuc(a1-2)Gal
# Outline: (§1)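 The Consortium for Functional Glycomics database supplied 3228 glycan arrays, of which those lacking an available protein sequence were dropped. The binding signal, a within-array Z-score, was averaged across arrays of the same protein sequence and across linkers. Negative scores can be read as non-binding.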
# Fuc(a1-2)Gal(b1-3)GalNAc = biological target: Fuc(a1-2)Gal(b1-3)GalNAc
# Outline: as §1
# [1] = biological target: Fuc(a1-2)Gal(b1-3)GalNAc(b1-3)Gal
# Outline: as §1
# [2] = biological target: Fuc(a1-2)Gal(b1-3)GalNAc(b1-3)Gal(a1-4)Gal(b1-4)Glc
# Outline: as §1
# [3] = biological target: Fuc(a1-2)Gal(b1-3)GalNAc(b1-4)[Neu5Ac(a2-3)]Gal(b1-4)Glc
# Outline: as §1
# Fuc(a1-2)Gal(b1-3)GlcNAc = biological target: Fuc(a1-2)Gal(b1-3)GlcNAc
# Outline: as §1
# [4] = biological target: Fuc(a1-2)Gal(b1-3)GlcNAc(b1-3)Gal(b1-4)Glc
# Outline: as §1
# [5] = biological target: Fuc(a1-2)Gal(b1-3)[Fuc(a1-4)]GlcNAc
# Outline: as §1
# Fuc(a1-2)Gal(b1-4)Glc = biological target: Fuc(a1-2)Gal(b1-4)Glc
# Outline: as §1
# Fuc(a1-2)Gal(b1-4)GlcNAc = biological target: Fuc(a1-2)Gal(b1-4)GlcNAc
# Outline: as §1
# [6] = biological target: Fuc(a1-2)Gal(b1-4)GlcNAc(b1-3)Gal(b1-4)GlcNAc
# Outline: as §1
# [7] = biological target: Fuc(a1-2)Gal(b1-4)GlcNAc(b1-3)Gal(b1-4)GlcNAc(b1-3)Gal(b1-4)GlcNAc
# Outline: as §1
# [8] = biological target: Fuc(a1-2)Gal(b1-4)[Fuc(a1-3)]GlcNAc
# Outline: as §1
# [9] = biological target: Fuc(a1-2)Gal(b1-4)[Fuc(a1-3)]GlcNAc(b1-3)Gal(b1-4)[Fuc(a1-3)]GlcNAc
# Outline: as §1
# [10] = biological target: Fuc(a1-2)Gal(b1-4)[Fuc(a1-3)]GlcNAc(b1-3)Gal(b1-4)[Fuc(a1-3)]GlcNAc(b1-3)Gal(b1-4)[Fuc(a1-3)]GlcNAc
# Outline: as §1
# Fuc(a1-2)GlcNAc = biological target: Fuc(a1-2)GlcNAc
# Outline: as §1
# Fuc(a1-2)[Gal(a1-3)]Gal = biological target: Fuc(a1-2)[Gal(a1-3)]Gal
# Outline: as §1
# [11] = biological target: Fuc(a1-2)[Gal(a1-3)]Gal(b1-3)GlcNAc
# Outline: as §1
# [12] = biological target: Fuc(a1-2)[Gal(a1-3)]Gal(b1-4)Glc
# Outline: as §1
# [13] = biological target: Fuc(a1-2)[Gal(a1-3)]Gal(b1-4)GlcNAc
# Outline: as §1
# [14] = biological target: Fuc(a1-2)[Gal(a1-3)]Gal(b1-4)[Fuc(a1-3)]GlcNAc
# Outline: as §1
# [15] = biological target: Fuc(a1-2)[Gal(a1-4)]Gal(b1-4)GlcNAc
# Outline: as §1
# [16] = biological target: Fuc(a1-2)[GalNAc(a1-3)]Gal
# Outline: as §1
# [17] = biological target: Fuc(a1-2)[GalNAc(a1-3)]Gal(b1-3)GlcNAc
# Outline: as §1
# [18] = biological target: Fuc(a1-2)[GalNAc(a1-3)]Gal(b1-4)Glc
# Outline: as §1
# [19] = biological target: Fuc(a1-2)[GalNAc(a1-3)]Gal(b1-4)GlcNAc
# Outline: as §1
# [20] = biological target: Fuc(a1-2)[GalNAc(a1-3)]Gal(b1-4)[Fuc(a1-3)]GlcNAc
# Outline: as §1
# [21] = biological target: Fuc(a1-2)[GalNAc(a1-4)]Gal(b1-4)GlcNAc
# Outline: as §1
# [22] = biological target: Fuc(a1-2)[GalNAc(b1-3)]Gal
# Outline: as §1
# Fuc(a1-3)GlcNAc = biological target: Fuc(a1-3)GlcNAc
# Outline: as §1
binder,measurement,setting,value
B1,glycan array binding signal (z-score),Fuc(a1-2)Gal,-0.369
same,glycan array binding signal (z-score),Fuc(a1-2)Gal(b1-3)GalNAc,-0.174
same,glycan array binding signal (z-score),[1],6.22
same,glycan array binding signal (z-score),[2],-0.189
same,glycan array binding signal (z-score),[3],0.308
same,glycan array binding signal (z-score),Fuc(a1-2)Gal(b1-3)GlcNAc,-0.196
same,glycan array binding signal (z-score),[4],-0.203
same,glycan array binding signal (z-score),[5],-0.052
same,glycan array binding signal (z-score),Fuc(a1-2)Gal(b1-4)Glc,-0.054
same,glycan array binding signal (z-score),Fuc(a1-2)Gal(b1-4)GlcNAc,-0.048
same,glycan array binding signal (z-score),[6],-0.176
same,glycan array binding signal (z-score),[7],-0.295
same,glycan array binding signal (z-score),[8],-0.16
same,glycan array binding signal (z-score),[9],-0.303
same,glycan array binding signal (z-score),[10],0.12
same,glycan array binding signal (z-score),Fuc(a1-2)GlcNAc,0.059
same,glycan array binding signal (z-score),Fuc(a1-2)[Gal(a1-3)]Gal,-0.319
same,glycan array binding signal (z-score),[11],-0.255
same,glycan array binding signal (z-score),[12],-0.282
same,glycan array binding signal (z-score),[13],-0.117
same,glycan array binding signal (z-score),[14],-0.276
same,glycan array binding signal (z-score),[15],-0.193
same,glycan array binding signal (z-score),[16],0.26
same,glycan array binding signal (z-score),[17],-0.119
same,glycan array binding signal (z-score),[18],-0.052
same,glycan array binding signal (z-score),[19],-0.239
same,glycan array binding signal (z-score),[20],-0.102
same,glycan array binding signal (z-score),[21],0.035
same,glycan array binding signal (z-score),[22],-0.091
same,glycan array binding signal (z-score),Fuc(a1-3)GlcNAc,-0.325
